These are yes or no findings as the source states them, for the method shown. Some results given as binding are weak or reduced against the parent protein; the word gives no strength.
Assays:
[1] = target: Cx43-CT residues 234–382 (Cx43-CT^234-382), untagged, from His-Cx43-CT^234-382 (UniProt P08050); test: co-IP; IF1 anti-Cx43 antibody (aa 360–382) on protein A agarose beads holds the Cx43-CT construct as bait; purified prey added; 1% BSA in 1X PBS, overnight; SDS-PAGE with SYPRO-Ruby staining (tubulin-rhodamine detected by UV); both purified
[2] = target: Cx43-CT residues 234–382 (Cx43-CT^234-382), untagged, from His-Cx43-CT^234-382 (UniProt P08050); test: co-IP; as a3, but Cx43-CT held by the mouse anti-Cx43 252–270 antibody (m252-270) instead of IF1; both purified
[3] = target: GST-Cx43-CT^240-382 Δ341–360 (UniProt P08050); test: condition: only with Cx43-CT held by the competing m252-270 antibody; co-IP; as a3, but Cx43-CT held by the mouse anti-Cx43 252–270 antibody (m252-270) instead of IF1; both purified
[4] = target: Cx43-CT residues 234–382 (Cx43-CT^234-382), untagged, from His-Cx43-CT^234-382 (UniProt P08050); test: as above
[5] = target: GST-Cx43-CT^240-382 Δ301–320 (UniProt P08050); test: co-IP; IF1 anti-Cx43 antibody (aa 360–382) on protein A agarose beads holds the Cx43-CT construct as bait; purified prey added; 1% BSA in 1X PBS, overnight; SDS-PAGE with SYPRO-Ruby staining (tubulin-rhodamine detected by UV); both purified
[6] = target: GST-Cx43-CT^244-382 Δ261–280 (UniProt P08050); test: as above
GST-Cx43-CT^234-382 WT = GST-Cx43-CT^234-382 WT (UniProt P08050); test: as above
[7] = target: GST-Cx43-CT^240-382 Δ341–360 (UniProt P08050); test: as above
[8] = target: GST-tagged Cx43CT residues 316–382 (GST-Cx43-CT^316-382) (UniProt P08050); test: as above
[9] = target: GST-Cx43-CT^240-382 Δ281–300 (UniProt P08050); test: as above

Protein sequences, listed by entry. Tags and fused reporters are not part of them. Lines headed by an entry give the natural chain unless they say otherwise; changes in a name come on top. Chains listed by the source or under a name are the forms on record and can include a tag or linker. Residues count along the entry.
Cx43-CT residues 234–382 (Cx43-CT^234-382), untagged, from His-Cx43-CT^234-382 (P08050, residues 234-382): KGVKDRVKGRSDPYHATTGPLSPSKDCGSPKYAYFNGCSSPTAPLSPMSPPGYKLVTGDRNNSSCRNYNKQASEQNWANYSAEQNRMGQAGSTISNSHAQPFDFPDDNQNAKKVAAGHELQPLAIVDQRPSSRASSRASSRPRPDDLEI
GST-tagged Cx43CT residues 316–382 (GST-Cx43-CT^316-382) (P08050, residues 316-382): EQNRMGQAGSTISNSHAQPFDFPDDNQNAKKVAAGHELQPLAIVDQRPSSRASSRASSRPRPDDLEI
GST-Cx43-CT^240-382 Δ341–360 (P08050, form named): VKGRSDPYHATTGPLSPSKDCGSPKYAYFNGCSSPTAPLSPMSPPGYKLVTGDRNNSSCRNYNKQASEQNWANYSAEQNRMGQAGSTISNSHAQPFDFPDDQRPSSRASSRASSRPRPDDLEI
GST-Cx43-CT^240-382 Δ301–320 (P08050, form named): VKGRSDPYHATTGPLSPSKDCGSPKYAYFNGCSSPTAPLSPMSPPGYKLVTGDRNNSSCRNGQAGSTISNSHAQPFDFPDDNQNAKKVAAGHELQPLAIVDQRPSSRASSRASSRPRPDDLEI
GST-Cx43-CT^244-382 Δ261–280 (P08050, form named): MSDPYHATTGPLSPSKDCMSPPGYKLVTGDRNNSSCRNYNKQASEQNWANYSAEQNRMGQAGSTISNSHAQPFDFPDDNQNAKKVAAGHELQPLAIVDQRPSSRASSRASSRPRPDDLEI
GST-Cx43-CT^240-382 Δ281–300 (P08050, form named): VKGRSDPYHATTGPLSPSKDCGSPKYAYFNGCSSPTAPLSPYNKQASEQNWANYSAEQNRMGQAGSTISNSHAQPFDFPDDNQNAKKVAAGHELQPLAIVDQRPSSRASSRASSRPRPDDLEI
UniProt P02787, residues 20-698: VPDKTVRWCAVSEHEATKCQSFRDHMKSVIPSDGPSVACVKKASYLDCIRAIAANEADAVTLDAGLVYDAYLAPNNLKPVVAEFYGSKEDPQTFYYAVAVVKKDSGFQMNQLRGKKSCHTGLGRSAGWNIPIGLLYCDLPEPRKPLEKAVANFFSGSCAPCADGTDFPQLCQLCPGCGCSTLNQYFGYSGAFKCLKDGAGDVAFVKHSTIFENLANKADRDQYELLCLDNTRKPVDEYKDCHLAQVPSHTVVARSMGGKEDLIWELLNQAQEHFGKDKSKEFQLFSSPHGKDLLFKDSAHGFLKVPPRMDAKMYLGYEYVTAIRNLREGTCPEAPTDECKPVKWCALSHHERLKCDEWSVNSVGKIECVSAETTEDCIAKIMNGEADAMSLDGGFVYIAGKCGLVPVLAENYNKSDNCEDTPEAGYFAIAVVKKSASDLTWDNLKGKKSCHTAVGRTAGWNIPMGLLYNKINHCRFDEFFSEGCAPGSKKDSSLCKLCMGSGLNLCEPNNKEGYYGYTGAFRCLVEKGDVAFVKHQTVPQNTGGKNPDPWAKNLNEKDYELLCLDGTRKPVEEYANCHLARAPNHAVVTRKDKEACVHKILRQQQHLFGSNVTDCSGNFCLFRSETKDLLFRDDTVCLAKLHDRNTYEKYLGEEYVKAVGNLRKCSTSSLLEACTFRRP
UniProt Q07157, residues 186-262: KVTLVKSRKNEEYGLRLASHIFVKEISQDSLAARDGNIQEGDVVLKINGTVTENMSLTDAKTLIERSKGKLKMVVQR

Transferrin (Tfn) (from UniProt P02787 20-698)
binding [1]: no binding
binding [2]: no binding

GST-ZO-1^PDZ2 (residues 186–262 of human ZO-1) (from UniProt Q07157 186-262) (domain or fragment)
binding [1]: binds
binding [2]: binds

B1: Drebrin A 1–300 (Drb^1-300), untagged (domain or fragment, UniProt Q9QXS6 1-300, looked up)
chain: MAGVSFSGHRLELLAAYEEVIREESAADWALYTYEDGSDDLKLAASGEGGLQELSGHFENQKVMYGFCSVKDSQAALPKYVLINWVGEDVPDARKCACASHVAKVAEFFQGVDVIVNASSVEDIDAGAIGQRLSNGLARLSSPVLHRLRLREDENAEPVGTTYQKTDAAVEMKRINREQFWEQAKKEEELRKEEERKKALDARLRFEQERMEQERQEQEERERRYREREQQIEEHRRKQQSLEAEEAKRRLKEQSIFGDQRDEEEESQMKKSESEVEEAAAIIAQRPDNPREFFRQQERV
notes: Drebrin A residues 1-300; also called drebrin amino acids 1–300; N-terminal fragment of drebrin; source: E. coli Rosetta cells, purified on glutathione-agarose column, GST tag digested and captured with a Thrombin kit
binding [3]: no binding
binding [4]: no binding
binding [5]: binds
binding [6]: no binding
binding (GST-Cx43-CT^234-382 WT): binds
binding [7]: binds
binding [8]: no binding
binding [1]: binds
binding [9]: binds
binding [2]: binds weakly

From publication PMC4900556, “Connexin43 Forms Supramolecular Complexes through Non-Overlapping Binding Sites for Drebrin, Tubulin, and ZO-1” (PLoS ONE, 2016)
